Measured values taken from publication PMC12136788.
The other results are listed elsewhere or left out.

B1: chr17:64801638:64801639:+_ENSG00000154229_ENST00000413366|hu_mus|hu_hu_hu_mus_False|1_38 (ssRNA)
RNA: GGGAGUUCUACAGUCCGACGAUCUAUAUAUAUAUAUACAUAUGUACACAUAUAUAGUAAAACCCUAGUUAAACGUGUAAAGUAGCCAUUCAUUUUUGAAAUUUUAUCUACAUUAAAAAAUUAAUAUAUCUGAUAGAGUGCCCACAACAGAGGAUUGAGCAUCA
B2: chr2:5814250:5814251:-_ENSMUSG00000025816_ENSMUST00000102981|mus_mus|FALSE|FALSE (ssRNA)
RNA: GGGAGUUCUACAGUCCGACGAUCUUCCUUUCAGGCUUCUGAAUUUCUGGUAGAACUGCACAGAAAGGUUUAAUAACUUCUAAAAACUUGAUGCCCAUGGCGGCGGCUCAGCACACCCGGCGGGCACCCGCGGCCUCGCAGCUGCAACAGAGGAUUGAGCAUCA
B3: chr15:78764095:78764096:+_ENSG00000136381_ENST00000258886|hu_mus|FALSE|FALSE (ssRNA)
RNA: GGGAGUUCUACAGUCCGACGAUCGUUCACUUGAUGAGCCAUUCCAGUUCCAGGCGGGAUGACUGCCACAUUCUUAAAAGCUCCUGAGCUCCACUUGAAAAACUGAAGCCUCUCUCGAUUUCUGCCAAAUUCUACUUCUUGAUUCAACAGAGGAUUGAGCAUCA
B4: chr16:94664741:94664742:+_ENSMUSG00000040785_ENSMUST00000117648|mus_hu|mus_mus_mus_hu_False|8_108 (ssRNA)
RNA: GGGAGUUCUACAGUCCGACGAUCUGGCAUGGAUCUUGGUAGCUGAUAUUCAGGAGAAAGGCUGGCCAAGGGUGUAUAUAUGCUGGUGUACUGGGGCAAACCUGGUAACACGUUUAUGUAUGCUGGCCGCUGGGUGAUGAUAUCCAACAGAGGAUUGAGCAUCA
B5: chr1:163112212:163112213:-_ENSG00000143248_ENST00000313961|hu_hu|hu_hu_hu_mus_False|18_108 (ssRNA)
RNA: GGGAGUUCUACAGUCCGACGAUCUUUAUUUAUCCAGAAGAGUGAGUUACAUACUAGGCAAAGUAUUGGAUACAAUAAUCAGGAAACAAACACUAUUGGUCCAGAAUUUAAAACUUUUGGGAUAAAUUGCUGGCACAGGACUUACAACAGAGGAUUGAGCAUCA
B6: 108361874_108364346_2953_CDS_ENSMUSG00000034557_ENSMUST00000106657|mouse|control|control (ssRNA)
RNA: GGGAGUUCUACAGUCCGACGAUCCUCUGUUGGAAGAGGACUGGUGGCUACAGGCUUGACUGGGUCAUGUGACACAGCCAGAGUUCCUGCAGAGGAAGUUCCAUUCAUUGUUAAUUUGGCUGCAUCAGCAACUUCUCCAUUAGGCAACAGAGGAUUGAGCAUCA

biological target: T1, UNK ZnF1-3 (human, UniProt Q9C0B0 31-174); assay: nsRBNS (natural sequence RNA bind-n-seq); RBNS binding buffer (assumed for nsRBNS): 25 mM Tris pH 7.5, 150 mM KCl, 3 mM MgCl2, 0.01% Triton X-100, 500 ug/ml BSA, 20 U/ml SUPERase-In, 4 C; UNK is unkempt and MSI1 is Musashi-1; names of the RNAs are library labels; protein concentration not given here; high values mean tight binding
T1 sequence: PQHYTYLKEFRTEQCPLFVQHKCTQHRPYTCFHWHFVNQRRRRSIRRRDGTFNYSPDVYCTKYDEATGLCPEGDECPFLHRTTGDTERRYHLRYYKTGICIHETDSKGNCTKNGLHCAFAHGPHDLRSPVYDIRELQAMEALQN

Binder | binding signal
B1 | 2.12 enrichment R
B2 | 1.1 enrichment R
B3 | 0.98 enrichment R
B4 | 1.1 enrichment R
B5 | 1.75 enrichment R
B6 | 0.836 enrichment R
